# Data from paper PMC4336329 (PLoS ONE, 2015).
# The campaign covered roughly 310,000 compounds. About 14,000 (4.5%) showed an effect of 50% or more. Effects have a minus sign here. This is one part of the list.
# Molecular target: human ether-à-go-go-related gene (hERG) potassium channel (human, UniProt Q12809)
# Assay: primary screen, population patch clamp on CHO cells stably expressing hERG
# 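Further: peak tail current of the secondary pulse compared with the same well before compound.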
# Chain of human ether-à-go-go-related gene (hERG) potassium channel (Q12809 whole entry, looked up): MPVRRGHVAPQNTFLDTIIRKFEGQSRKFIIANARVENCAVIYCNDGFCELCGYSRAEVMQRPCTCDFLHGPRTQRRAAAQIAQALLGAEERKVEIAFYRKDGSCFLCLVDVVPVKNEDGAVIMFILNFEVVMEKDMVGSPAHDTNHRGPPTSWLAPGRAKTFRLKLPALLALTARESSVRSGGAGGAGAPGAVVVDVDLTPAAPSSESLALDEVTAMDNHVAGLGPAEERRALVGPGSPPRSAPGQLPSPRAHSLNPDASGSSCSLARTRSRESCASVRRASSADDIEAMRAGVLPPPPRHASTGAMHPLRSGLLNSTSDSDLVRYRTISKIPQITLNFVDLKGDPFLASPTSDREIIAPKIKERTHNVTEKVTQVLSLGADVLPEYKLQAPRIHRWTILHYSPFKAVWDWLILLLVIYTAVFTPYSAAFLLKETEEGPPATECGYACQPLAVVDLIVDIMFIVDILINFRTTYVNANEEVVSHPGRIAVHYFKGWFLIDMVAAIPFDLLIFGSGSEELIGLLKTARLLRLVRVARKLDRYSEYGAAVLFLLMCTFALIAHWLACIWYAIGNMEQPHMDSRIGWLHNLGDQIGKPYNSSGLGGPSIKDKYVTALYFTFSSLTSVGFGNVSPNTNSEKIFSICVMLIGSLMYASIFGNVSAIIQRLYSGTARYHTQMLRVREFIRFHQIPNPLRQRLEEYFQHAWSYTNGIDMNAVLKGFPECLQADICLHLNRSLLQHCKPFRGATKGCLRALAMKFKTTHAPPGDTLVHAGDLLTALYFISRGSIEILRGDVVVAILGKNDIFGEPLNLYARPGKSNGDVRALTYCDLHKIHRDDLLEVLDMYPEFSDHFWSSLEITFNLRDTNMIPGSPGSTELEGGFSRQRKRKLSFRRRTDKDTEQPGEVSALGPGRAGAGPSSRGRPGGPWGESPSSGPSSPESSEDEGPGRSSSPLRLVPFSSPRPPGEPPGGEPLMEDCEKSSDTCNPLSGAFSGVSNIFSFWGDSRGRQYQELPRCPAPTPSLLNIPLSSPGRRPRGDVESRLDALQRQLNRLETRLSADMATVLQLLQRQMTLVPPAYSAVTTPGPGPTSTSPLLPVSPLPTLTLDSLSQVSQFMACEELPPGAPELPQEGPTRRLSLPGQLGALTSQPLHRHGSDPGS
row,Compound,"hERG current change (%, negative = inhibition) at 10uM [%]"
1,COc1ccc(N(C)S(=O)(=O)c2cccc(C(=O)Nc3ccc(-n4cnnn4)cc3)c2)cc1,6.15
2,O=C(c1ccc(S(=O)(=O)N2CCOCC2)cc1)N(c1ccc(F)cc1)C1C=CS(=O)(=O)C1 (centres unmarked),-16.5
3,CCOCCCNS(=O)(=O)c1ccc2c(c1)oc(=O)n2CC(=O)OCC,9.83
4,COC(=O)C1=C(C)N(c2ccccc2)/C(=C/c2cccs2)C1=O,3.92
5,CCCCOP(=O)(c1ccc(N(C)C)cc1)C(O)c1ccc(OC)cc1 (centres unmarked),-2.61
6,Cc1[nH]c2ccccc2c1CCN(Cc1cccs1)C(=S)Nc1ccccc1,14.4
7,COc1cc(/C=N/NC(=O)Cn2nc([N+](=O)[O-])cc2C)cc(Br)c1OCc1ccccc1,17.1
8,OCCN(Cc1ccccc1)C(=S)Nc1ccc(F)cc1,16.8
9,Cc1c(Cl)cccc1NC(=O)CSc1nncn1-c1ccccn1,13
10,CN(C)/C=N/NC(=O)C1Cc2c(ccc3ccccc23)O1 (centres unmarked),10.6
11,COc1ccc(/C=N/NC(=O)c2[nH]nc3c2CCc2ccccc2-3)cc1OC,-4.02
12,Cc1[nH][nH]c(=O)c1C=NCc1ccc(Cl)cc1,16.8
13,Cc1ccccc1C(=O)NCC(=O)NNC(=S)NC(=O)c1ccccc1C,9.99
14,CC(=O)Nc1ccc(OC(=O)c2ccc(Br)c([N+](=O)[O-])c2)cc1,7.81
15,Cc1nc2ccc3nc(NC(=O)C4COc5ccccc5O4)sc3c2s1 (centres unmarked),8.88
16,COc1ccccc1C(=O)Nc1ccc(C2=NNC(=O)CC2C)cc1 (centres unmarked),-5.65
17,O=C(CSc1nnc(NC(=O)C2CCC2)s1)Nc1ccccc1,-2.37
18,Clc1ccc(OCCCc2nc(-c3ccncc3)no2)c(Cl)c1,-0.0206
19,CC1(OC(=O)CCc2ccccc2)C(=O)C=C2C=C(c3ccc(C#N)cc3)N(C3CCCC3)C=C2C1=O (centres unmarked),-49.7
20,CCc1ccc(OCC(=O)NNC(=O)CNC(=O)c2ccc(Br)o2)cc1,-5.45
21,CC(NC(=O)c1ccccc1Br)C1CC2CCC1C2 (centres unmarked),-5.67
22,Cc1ccccc1-n1c(SCC(=O)N2CCCCC2)nc(O)cc1=O,25.5

row,Compound,"hERG current change (%, negative = inhibition) at 10uM [%]"
1,CC(C)C(NC(=O)C(NC(=O)C1OC2OC(C)(C)OC2C2OC(C)(C)OC12)C(C)C)C(=O)O (centres unmarked),15.2
2,Cc1oc(-c2ccccc2Cl)nc1CS(=O)(=O)CC(=O)N1CCOCC1,-5.4
3,CCN1CCN(C(=O)c2ccc(COc3ccc(Cl)cc3)o2)CC1,-52.5
4,N#C/C(=C(/O)c1ccco1)c1nc2ccccc2s1,27.7
5,Cc1cccc(NC(=O)C2CCCC2)c1,-7.29
6,CN(C)c1nc(OCCNC(=O)Nc2ccccc2)nc(N(C)C)n1,4.56
7,O=C(NC1CCCCC1)c1ccc2snnc2c1,12.8
8,COc1ccc2c(c1[N+](=O)[O-])CCC/C2=N/OC(=O)c1ccccc1SC,10.5
9,O=C1c2cccc3cccc(c23)C(=O)N1Cc1ccco1,22.3
10,N#Cc1cc(-c2ccc(Cl)cc2)cn(Cc2c(Cl)cccc2Cl)c1=O,-4.67
11,O=C(NCCCN1CCOCC1)c1cc(-c2cccc(O)c2)on1,5.34
12,N#CCc1c(C#N)c(N)nc(N2CCCC(CO)C2)c1C#N (centres unmarked),1.82
13,COc1ccc(OC)c(C(=O)NC(CC(N)=O)c2ccc(N3CCCCCC3)c([N+](=O)[O-])c2)c1 (centres unmarked),-12.6
14,CCCC(=O)Nc1ccc2oc(-c3ccncc3)nc2c1,5.92
15,CCOc1nc(CC)nc(NC(=O)NS(=O)(=O)c2ccccc2Cl)n1,19.5
16,COc1ccc(CC(=O)Nc2ccc3nc(C)sc3c2)cc1OC,7.73
17,O/N=C/c1ccccc1OCc1ccccc1F,-1.83
18,COc1ccc(C(=O)Nc2cc3c(cc2C#N)OCO3)cc1S(=O)(=O)NCc1ccco1,-6.24
19,O=C(Nc1ccc2c(c1)Cc1ccccc1-2)c1ccncc1,7.01
20,CC(C)(C)c1ccc(C(=O)NNc2ncccc2-n2cccc2)cc1,-1.1
21,Cc1csc(NC(=O)C2CCCN(S(=O)(=O)c3ccc4c(c3)oc(=O)n4C)C2)n1 (centres unmarked),-4.84
22,COc1ccc(C(=O)NCCN2CCCC2)cc1.Cl,3.56

row,Compound,"hERG current change (%, negative = inhibition) at 10uM [%]"
1,O=CN1CCN(C(C(=O)NC2CCCCC2)c2ccc(Cl)cc2)CC1 (centres unmarked),-15
2,O=C(Nc1ncnc2c1ncn2C1OC(COC(=O)c2ccccc2)C(F)C1O)c1ccccc1 (centres unmarked),-25.7
3,COc1ccc(CNC(=O)C[C@H]2C(=O)N(CCc3ccccc3)C[C@@H]2Cc2ccccc2)cc1,-53
4,Cc1ccc(C)c(Cn2c(=O)c3c(nc4n3CCN4Cc3ccco3)n(C)c2=O)c1,-3.76
5,COc1cc(C(=O)NC2CC(C)(C)NC(C)(C)C2)cc(OC)c1OC,33.3
6,COc1ccc(NC(=S)NC2CCCC2)c(OC)c1,11
7,Cc1[nH]n(-c2ccccc2)c(=O)c1CCOC(=O)c1cccc(C(F)(F)F)c1,-0.969
8,CCOC(=O)Cn1c(=NC(=O)CN2C(=O)CCC2=O)sc2cc(S(N)(=O)=O)ccc21,18.8
9,CC1CCN(C(=O)CSc2nnc(-c3cccnc3)o2)CC1,4.89
10,Cc1ccc(S(=O)(=O)N2CCN(C(=O)COC(=O)CSc3ccccc3)CC2)c(C)c1,12.9
11,COC(=O)c1ccc(NC(=O)CCN2C(=O)NC(C)(C)C2=O)cc1,11.5
12,O=C(CCC(=O)N1CCOCC1)NCCc1ccccc1,20.1
13,COc1cccc(/C=N/NC(=O)C(=O)N2CCCC2)c1O,-5.06
14,COc1cccc(-c2nc(CS(=O)(=O)CC(=O)N3CCCCC3)c(C)o2)c1,2.92
15,O=C(CN1CCCc2ccccc21)N/N=C/c1c(O)ccc2ccccc12,0.442
16,Cc1ccc2c(c1)C(c1ccccc1)N(C(=O)c1ccccc1[N+](=O)[O-])CC(=O)N2 (centres unmarked),-40.5
17,Cc1cc(C)cc(C(=O)NC(CC(N)=O)c2ccc(N3CCN(c4ccccc4)CC3)c([N+](=O)[O-])c2)c1 (centres unmarked),13.3
18,CCCSc1nc(-n2ncc(C#N)c2N)c2c3c(sc2n1)CCC(C)C3 (centres unmarked),5.45
19,CCN(CC)C(=O)CNC(=O)c1nn(-c2ccc(OC)c(Cl)c2)c(=O)c2ccccc12,3.83
20,COc1ccc(C2OC(=O)CC2C(=O)NCc2ccc(F)cc2)cc1OC (centres unmarked),-15.7
21,CC(C)(C)OC(=O)NCCCCC1=CC2=CC(=O)C(C)(O)C(=O)C2=CO1 (centres unmarked),2.97
22,Cc1ccc(NCC(=O)N/N=C\c2ccc([N+](=O)[O-])o2)cc1,-35

row,Compound,"hERG current change (%, negative = inhibition) at 10uM [%]"
1,O=C(N/N=C/c1ccc(-c2ccccc2[N+](=O)[O-])o1)[C@H]1C[C@@H]1c1ccccc1,7.36
2,Cc1cccc(NC(=O)CSc2nc(=O)n3ccccc3n2)c1C,-0.594
3,Cc1c(NC(=O)c2ccc3c(c2)OCO3)cccc1-c1nc2ncccc2o1,10.3
4,CC(=O)N1C(Nc2ccc(Cl)cc2)CCN1c1ccccc1 (centres unmarked),9.96
5,Nc1nc(SCCN2C(=O)c3ccccc3C2=O)n[nH]1,11.6
6,CCC(c1ccccc1)c1nnc(NC(=O)c2ccco2)s1 (centres unmarked),14.7
7,Cc1ccc(-c2ccc(SCC(=O)N3CCCc4ccccc43)nn2)cc1,-15.7
8,C=CCn1cnc2c(nnn2-c2ccc(C)c(C)c2)c1=O,-3.77
9,N/C(=N\OC(=O)c1ccc(Cl)c([N+](=O)[O-])c1)c1ccccc1,22
10,O=C(NC1CCCCC1)C1CC(=O)N(CCc2ccccc2)C1 (centres unmarked),-7.01
11,CCOC(=O)c1ccc2c(c1)nc(-c1ccc(F)cc1)c1nccn12,5.55
12,C/C1=C\[C@@H](C)C/C=C/[C@H]2[C@@H]3O[C@]3(C)[C@@H](C)[C@H]3[C@H](Cc4c[nH]c5ccccc45)NC(=O)[C@]32C(=O)/C=C/C(=O)[C@@H]1O,7.01
13,CCOC(=O)c1[nH]nc(N)c1NC(=O)c1ccc(Cl)cc1Cl,1.13
14,COCCNC(=S)N1CCC(NC(=O)c2ccco2)CC1,15.7
15,CCOc1ccc(N/C(C)=C\C(=O)c2ccc3c(c2)OCCO3)cc1,1.45
16,Cc1ccc(C)c(NC2=NCC(=O)N2C2CCCCC2)c1,-1.7
17,CSC1=C(C#N)C(c2ccccc2C)C(C#N)=C(N)N1 (centres unmarked),2.8
18,CCCC1CCC(C(=O)n2nc(N)c3cc4ccc(OC)cc4nc32)CC1 (centres unmarked),10.3
19,CCCc1ccc2oc(C(=O)N3CCN(c4cnccn4)CC3)c(C)c2c1,-46.1
20,CCCNC(=O)c1ccc(C)c(NC(=O)C2=C(C)OCCS2)c1,3.06
